Data from patent US20090130106A1 (UNIVERSITY OF SYDNEY, published 2009).

What was measured:
[1] = target: T1, CD45 on human cell lines (Raji, MEC-2, CCRF-CEM) (human, UniProt P08575 26-1306); assay: flow cytometry on Raji cells, 488/575 nm
T1 construct: whole, on cells; Endogenous CD45 on the human cell lines; also called pan leukocyte marker
T1 sequence (looked up): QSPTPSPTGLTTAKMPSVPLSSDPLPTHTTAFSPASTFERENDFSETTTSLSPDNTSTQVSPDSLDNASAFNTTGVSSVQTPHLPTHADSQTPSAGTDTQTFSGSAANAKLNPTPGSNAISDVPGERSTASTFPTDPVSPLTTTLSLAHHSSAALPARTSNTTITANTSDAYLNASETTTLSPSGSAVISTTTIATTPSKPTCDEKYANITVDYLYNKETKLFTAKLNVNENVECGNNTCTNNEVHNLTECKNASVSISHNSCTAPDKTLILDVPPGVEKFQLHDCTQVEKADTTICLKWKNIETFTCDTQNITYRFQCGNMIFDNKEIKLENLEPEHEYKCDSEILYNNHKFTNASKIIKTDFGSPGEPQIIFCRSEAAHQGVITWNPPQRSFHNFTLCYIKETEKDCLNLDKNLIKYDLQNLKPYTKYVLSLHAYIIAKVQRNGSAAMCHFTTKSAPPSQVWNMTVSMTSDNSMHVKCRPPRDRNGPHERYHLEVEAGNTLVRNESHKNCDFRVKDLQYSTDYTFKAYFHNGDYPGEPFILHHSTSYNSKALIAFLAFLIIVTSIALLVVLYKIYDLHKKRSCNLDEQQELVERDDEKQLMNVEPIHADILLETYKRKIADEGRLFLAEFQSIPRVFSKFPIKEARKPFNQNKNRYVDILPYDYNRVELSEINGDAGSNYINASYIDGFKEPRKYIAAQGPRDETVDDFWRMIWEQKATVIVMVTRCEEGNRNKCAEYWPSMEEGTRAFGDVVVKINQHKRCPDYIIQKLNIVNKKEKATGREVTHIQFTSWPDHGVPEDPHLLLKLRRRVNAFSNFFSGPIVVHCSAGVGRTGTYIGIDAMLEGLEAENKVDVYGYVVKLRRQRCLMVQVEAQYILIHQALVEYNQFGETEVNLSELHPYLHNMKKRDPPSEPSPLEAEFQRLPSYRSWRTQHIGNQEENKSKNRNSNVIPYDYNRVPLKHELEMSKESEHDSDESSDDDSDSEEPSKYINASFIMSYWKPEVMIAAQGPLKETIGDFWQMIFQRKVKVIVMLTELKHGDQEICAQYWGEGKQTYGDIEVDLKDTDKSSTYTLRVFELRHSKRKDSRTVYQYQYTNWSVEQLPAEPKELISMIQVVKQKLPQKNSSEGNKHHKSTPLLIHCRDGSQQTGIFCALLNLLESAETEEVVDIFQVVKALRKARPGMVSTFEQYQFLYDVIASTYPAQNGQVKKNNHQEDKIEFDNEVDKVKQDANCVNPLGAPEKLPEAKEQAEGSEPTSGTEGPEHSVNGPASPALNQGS
Procedure: (§1) Suspensions of the human cell lines Raji (CD20⁺, CD45⁺), MEC-2 (CD20⁺, CD45⁺), CCRF-CEM (CD20⁻, CD45⁺) were harvested (500 g, 10 min, room temperature), washed with PBS+5% v/v FCS, centrifuged and resuspended in PBS+5% v/v FCS to a final concentration of 1×10⁶ cells/mL. To label cells with one or both Demibodies, 300 μL cell suspension (3×10⁵ cells) was incubated with 30 μL Demibody (200 μg/mL, Demibody A (DBA; CD45-mOrange-E3), Demibody B (DBB; CD20-T-Sapphire-K3)) for 60 min in the dark at room temperature. Based upon the known immunophenotypes of these cell lines, the following binding patterns are expected.
(§2) The more than 7-fold shift in mean fluorescence detected at 575 nm (red numbers) indicates the binding of DBA to all three cell lines as expected, since they express CD45 which binds to DBA. A minor shift in fluorescence was detected for the binding of DBB on Raji and MEC-2 cells. A minor FRET signal was detected for the Raji cell line.

[2] = target: T1, CD45 on human cell lines (Raji, MEC-2, …); assay: flow cytometry on MEC-2 cells, 488/575 nm
Procedure: as §1, §2

[3] = target: T2, Trx-CD20-T-Sapphire-K3 (Demibody B); assay: flow cytometry FRET 407/585 nm on Raji cells
T2 construct: also called DBB; CD20-Sapphire-K3
T2 sequence (chain, as listed by the source): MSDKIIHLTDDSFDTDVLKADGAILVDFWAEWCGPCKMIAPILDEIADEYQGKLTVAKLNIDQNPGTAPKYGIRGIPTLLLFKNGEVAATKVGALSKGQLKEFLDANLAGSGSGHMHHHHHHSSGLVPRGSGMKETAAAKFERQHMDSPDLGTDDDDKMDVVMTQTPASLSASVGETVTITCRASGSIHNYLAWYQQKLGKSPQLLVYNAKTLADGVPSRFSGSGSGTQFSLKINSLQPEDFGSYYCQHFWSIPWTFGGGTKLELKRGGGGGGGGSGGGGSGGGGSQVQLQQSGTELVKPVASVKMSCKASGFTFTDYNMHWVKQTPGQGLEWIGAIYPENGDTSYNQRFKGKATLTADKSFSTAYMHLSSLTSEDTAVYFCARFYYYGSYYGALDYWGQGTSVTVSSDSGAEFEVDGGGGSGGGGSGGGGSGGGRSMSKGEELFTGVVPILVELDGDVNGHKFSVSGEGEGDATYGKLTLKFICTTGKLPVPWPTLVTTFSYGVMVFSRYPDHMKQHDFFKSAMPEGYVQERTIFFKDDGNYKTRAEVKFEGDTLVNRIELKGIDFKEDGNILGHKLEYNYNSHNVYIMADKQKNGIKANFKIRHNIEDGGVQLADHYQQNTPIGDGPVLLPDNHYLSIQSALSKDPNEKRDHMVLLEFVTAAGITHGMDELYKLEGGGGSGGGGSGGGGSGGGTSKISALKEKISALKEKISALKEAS
Procedure: as §1, §2

[4] = target: T1, CD45 on human cell lines (Raji, MEC-2, …); assay: flow cytometry on CCRF-CEM cells, 488/575 nm
Procedure: as §1, §2

[5] = target: T2, Trx-CD20-T-Sapphire-K3 (Demibody B); assay: flow cytometry FRET 407/585 nm on MEC-2 cells; Table 6 rates this as no FRET
Procedure: as §1, §2

[6] = target: T2, Trx-CD20-T-Sapphire-K3 (Demibody B); assay: flow cytometry FRET 407/585 nm on CCRF-CEM cells (CD20-); Table 6 rates this as no FRET
Procedure: as §1, §2

B1: Trx-CD45-mOrange-E3 (Demibody A) (scFv)
chain: [about 100 residues not listed]GSGSGHMHHHHHHSSGLVPRGSGMKETAAAKFERQHMDSPDLGTDDDDKQVQLVESGGGLVQPGGSLKLSCAASGFDFSRYWMSWVRQAPGKGLEWIGEINPTSSTINFTPSLKDKVFISRDNAKNTLYLQMSKVRSEDTALYYCARGNYYRYGDAMDYWGQGTSVTVSKISGGGGSGGGGSGGGGSGGGGSGGGGSSDIVLTQSPASLAVSLGQRATISCRASKSVSTSGYSYLHWYQQKPGQPPKLLIYLASNLESGVPARFSGSGSGTDFTLNIHPVEEEDAATYYCQHSRELPFTFGSGTKLEIKVDGGGGSGGGGSGGGGSGGGRSMVSKGEENNMAIIKEFMRFKVRMEGSVNGHEFEIEGEGEGRPYEGFQTAKLKVTKGGPLPFAWDILSPQFTYGSKAYVKHPADIPDYFKLSFPEGFKWERVMNFEDGGVVTVTQDSSLQDGEFIYKVKLRGTNFPSDGPVMQKKTMGWEASSERMYPEDGALKGEIKMRLKLKDGGHYTSEVKTTYKAKKPVQLPGAYIVGIKLDITSHNEDYTIVEQYERAEGRHSTGGMDELYKLEGGGGSGGGGSGGGGSGGGTSEISALEKEISALEKEISALEKAS
notes: also called DBA; Trx-DBA
[1]
  ratio of the mean fluorescence (cells + Demibody/cells): 7.7 ratio
[2]
  ratio of the mean fluorescence (cells + Demibody/cells): 7.8 ratio
[3]
  FRET ratio of the mean fluorescence (cells + Demibody/cells): 1.6 ratio
[4]
  ratio of the mean fluorescence (cells + Demibody/cells): 7.5 ratio
[5]
  FRET ratio of the mean fluorescence (cells + Demibody/cells): 1.3 ratio
[6]
  FRET ratio of the mean fluorescence (cells + Demibody/cells): 1.2 ratio
